From PubChem BioAssay AID686979 (National Center for Advancing Translational Sciences (NCATS), 2013)
Out of some 420,000 compounds screened, about 50,000 (12%) were called active. Inconclusive means that the source gave no clear call. Such entries were picked first, then a sample of the others. Calls come from the whole dose curve; as a rule, active = well fitted inhibition curve with a large enough effect; inconclusive = small, poorly fitted or top-dose-only effect; inactive = flat fitted curve, though single readings scatter. Potencies of inconclusive entries are left out as doubtful fits. Some compounds were tested as several samples or in several runs, with calls that do not always agree.

Assay: qHTS for Inhibitors of human tyrosyl-DNA phosphodiesterase 1 (TDP1): qHTS in cells in presence of CPT; note: nearly all actives have a fitted effect of over 55% in size
Details: chicken DT40 Tdp1-/-;hTDP1 cells + 20 nM CPT, ATP luminescence, 48 h; activity change, negative = growth inhibition: at 46.2 µM (top of the series)
Procedure, shortened: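 Chicken DT40 Tdp1-/- cells stably complemented with human TDP1 were seeded at 400 cells/well in medium containing 20 nM camptothecin, exposed to pin-transferred compounds, and grown at 37 °C for at least 48 hr. Viability was read as ATP luminescence.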
% is set by controls: 0 for no effect and ±100 for the full control effect; potency is the fitted concentration of half-maximal effect; tags give direction and shape of the fitted curve.

Row | Structure (SMILES) | Potency | activity change, negative = growth inhibition
1 | CN1CCN(S(=O)(=O)c2ccccc2)C(c2ccccc2)C1 (stereo unspecified) | inactive | –
2 | CCCCNC(=S)NNC(=O)c1csc(C(C)C)c1 | inconclusive [inhibitor, single point] | –
3 | Cc1ccc(S(=O)(=O)NCc2ccccc2)cc1C(=O)NC1CCC(C)CC1 (stereo unspecified) | inconclusive [inhibitor, single point] | –
4 | CC(=O)c1ccc(S(=O)(=O)NCCOc2ccccc2)cc1 | inactive | –
5 | COc1ccc(N2CCN(C(=O)c3csc4ccccc34)CC2)cc1 | inactive | –
6 | COc1ccc(Nc2ccnc(Nc3ccc(OC)cc3)n2)cc1 | active: 2.59 µM | –
7 | S=c1[nH]nc(-c2ccccc2)n1/N=C/C=C/c1ccco1 | inconclusive [inhibitor, single point] | –
8 | C=C[C@@H]1c2cc(C)ccc2N(S(=O)(=O)c2ccc(C)cc2)[C@H](c2ccccc2C(F)(F)F)C1(C#N)C#N | active: 8.2 µM | –
9 | CCOC(=O)c1cnc(N2CCN(c3ccc(C)cc3C)CC2)c2ccccc12 | inconclusive [inhibitor, partial curve] | –
10 | CCOC(=O)C1Cn2c(nc3c(c2=O)C2(CCCC2)Cc2ccccc2-3)S1 (stereo unspecified) | inconclusive [inhibitor, single point] | –
11 | Cn1c(=O)c2c(SCC(=O)Nc3ccc(F)cc3F)nc(C3CCCC3)nc2n(C)c1=O | inconclusive [inhibitor, full curve] | –
12 | CCOC(=O)c1c(NC(=O)C2C3C=CC(C3)C2C(=O)O)sc2c1CCCC2 (stereo unspecified) | inconclusive [inhibitor, single point] | –
13 | COc1cc(-c2noc(C)c2C(=O)N[C@@H](CO)Cc2ccccc2)cc(OC)c1OC | inconclusive [inhibitor, single point] | –
14 | CCOCc1cnc(C)nc1NCC(=O)c1c(C)[nH]c2cc(C)ccc12 | inconclusive [inhibitor, partial curve] | –
15 | Cc1c(C)n2c(SCC(=O)N3CCCCCC3)nnc2[nH]c1=O | inactive | –
16 | COc1cccc(NC(=O)C2(C)CCN2Cc2ccccc2Cl)c1 (stereo unspecified) | active: 25.9 µM | –
17 | CCn1c(=O)c2cc(C(=O)NC(C)C)sc2c2ccccc21 | inconclusive [inhibitor, single point] | –
18 | Cc1ccccc1NC(=O)C1CCCN1S(=O)(=O)c1cccc2cccnc12 (stereo unspecified) | inconclusive [inhibitor, single point] | –
19 | O=C(Cn1nnc2c(sc3nc4c(c(-c5ccccc5)c32)CCC4)c1=O)c1ccccc1 | inconclusive [inhibitor, single point] | –
20 | CCOC(=O)Cc1csc(NC(=O)c2cnc3sc(C)cn3c2=O)n1 | inconclusive [inhibitor, single point] | –
21 | CSc1cccc(NC(=O)CN2C(=O)COc3ccc(S(=O)(=O)N4CCC(C)CC4)cc32)c1 | inconclusive [inhibitor, single point] | –
22 | COc1ccc(Cl)cc1C(=O)NNC(=O)CSc1nncn1C | inactive | –
23 | COc1ccccc1Cc1c(C2CCCCC2)nc2ccc(C)cn12 | active: 20.6 µM | –
24 | COc1ccc(CCNC2=CC(=O)CCC2)cc1OC | inactive | –

Row | Structure (SMILES) | Potency | activity change, negative = growth inhibition
25 | C=CCNC(=S)Nc1cc(C)ccn1 | inconclusive [inhibitor, single point] | –
26 | CN=C(NC)NCc1ccccc1 | inactive | –
27 | Cc1ccc(C)c(-n2c3nc(=O)[nH]c(=O)c-3cc3cc([N+](=O)[O-])ccc32)c1 | active: 1.16 µM | –
28 | O=C1[C@@H](c2ccccc2)[C@@H](c2ccccc2)N1c1cccnc1 | active: 16.4 µM | –
29 | CC(C)(CNC(=O)c1cnn(-c2ncc3c(n2)-c2ccccc2CC3)c1C1CC1)N1CCOCC1 | – | inactive: -9.83% [at 9.04 µM]
30 | Cc1ccccc1CNC(=O)c1ccc2[nH]c(C)c(C)c2c1 | inconclusive [inhibitor, partial curve, poor fit] | –
31 | COC(=O)[C@@H]1C[C@H]2CC[C@H](O)C[C@H]2N1Cc1ccccc1OS(=O)(=O)c1ccc(C)cc1 | inconclusive [inhibitor, partial curve] | –
32 | O=C(CN1C(=O)CC(c2ccco2)Sc2ccccc21)Nc1ccccc1F (stereo unspecified) | inconclusive [inhibitor, single point] | –
33 | O=C(CCC(=O)c1ccc(F)cc1)NC1CCCN(Cc2ccccc2F)C1 (stereo unspecified) | inactive | –
34 | CC(=O)N1CCN(c2nc(-c3ccco3)c3c(c2C#N)CC(C)(C)SC3)CC1 | inconclusive [inhibitor, single point] | –
35 | Cc1cccc(N2CCN(C(=O)CSc3nnnn3C3CC3)CC2)c1C | inconclusive [inhibitor, single point] | –
36 | c1ccc(COc2cccc(CN3CCc4ccccc4C3)c2)cc1 | inactive | –
37 | Cc1noc(C)c1S(=O)(=O)Nc1ccc2c(c1)C(=O)N([C@@H](C)CO)C[C@H](C)[C@@H](CN(C)Cc1ccc(C(F)(F)F)cc1)OCCCC[C@H](C)O2 | inconclusive [inhibitor, single point] | –
38 | O=P(c1ccccc1)(c1ccccc1)C(O)c1cccs1 (stereo unspecified) | inactive | –
39 | COC(=O)c1ccccc1S(=O)(=O)N1CCCC(c2nc3c(nnn3Cc3ccc(C)cc3)c(=O)[nH]2)C1 (stereo unspecified) | inconclusive [inhibitor, partial curve] | –
40 | Cc1cc(C)cc(Nc2cc(C)nc3nc(-c4ccco4)nn23)c1 | active: 16.4 µM | –
41 | COc1cccc(CNC(=O)c2nnn(CC(=O)Nc3ccc(Br)cc3)c2N)c1 | active: 10.3 µM | –
42 | CC(C)(C)C1CCC2(CC1)C(Nc1cccc(C(F)(F)F)c1)=NC(=S)N2CC#N (stereo unspecified) | inconclusive [inhibitor, single point] | –
43 | CC(=O)NC(Cc1ccccc1)C(=O)N1CCN(C(=O)c2ccco2)CC1 (stereo unspecified) | inactive | –
44 | Cc1ccc(-c2nc3c4ccccc4n(CC(=O)N4CCN(c5ccc(F)cc5)CC4)c(=O)n3n2)cc1 | inactive | –
45 | NCCOc1ccccc1-c1ccccc1 | inconclusive [inhibitor, single point] | –
46 | COc1ccc2[nH]cc(CCNC(=O)CS(=O)(=O)Cc3ccccc3)c2c1 | inactive | –
47 | OC1C(O)C(O)C(O)C(O)C1O (stereo unspecified) | active: 15 µM | –
48 | O=C(CSc1n[nH]c(-c2ccccc2O)n1)N1CCCc2ccccc21 | inconclusive [inhibitor, single point] | –

Row | Structure (SMILES) | Potency | activity change, negative = growth inhibition
49 | CC(C)CC1C(=O)N(Cc2cn(CC3CCCCC3)nn2)CCS(=O)(=O)N1Cc1ccc(-c2ccc(Cl)c(Cl)c2)cc1 (stereo unspecified) | inconclusive [inhibitor, single point] | –
50 | CC1CCN(c2ccc3c(c2)S(=O)(=O)c2cccc(C(=O)O)c2C3=O)CC1 | inactive | –
51 | O=c1[nH]c(-c2ccccc2)c(-c2ccccc2)[nH]1 | inactive | –
52 | Cc1nc(CCNC(=O)c2cc(COc3ccc(F)cc3Cl)on2)sc1C | inconclusive [inhibitor, single point] | –
53 | O=C(CN1CCN(S(=O)(=O)c2ccc(Cl)c(C(F)(F)F)c2)CC1)NC(=O)NC1CCCCC1 | active: 20.6 µM | –
54 | CC(=O)N1C(=O)/C(=C2\SC(=S)N(NC(=O)c3ccc(O)cc3)C2=O)c2ccccc21 | inactive | –
55 | Cn1ncc(Br)c1C(=O)NC(=S)N1CCN(c2ccccn2)CC1 | inconclusive [inhibitor, single point] | –
56 | CC1CN(c2nnc(-c3ccccc3)c3ccccc23)CC(C)O1 (stereo unspecified) | inconclusive [inhibitor, single point] | –
57 | O=C1NC(=S)NC(=O)C1Nc1ccc(Cl)cc1 | inconclusive [inhibitor, single point] | –
58 | Cc1cc(F)ccc1NC(=O)C(C)n1c2ccccc2c2nc(=O)cc(C)n21 (stereo unspecified) | inconclusive [inhibitor, single point] | –
59 | CCOc1ccc2[nH]c(=O)c(CN(Cc3ccc(F)cc3)C(=O)N3CCCC3)cc2c1 | inconclusive [inhibitor, single point] | –
60 | CCC(C)NC(=O)Cn1c(-c2cccs2)cc2cc(Cl)ccc21 (stereo unspecified) | inactive | –
61 | Cc1ccc(-c2onc(C)c2C)cc1S(=O)(=O)N1CCOc2ccccc21 | active: 18.4 µM | –
62 | Cc1ncc(CN2CCCC(C(=O)Nc3ccc(-c4ccco4)cc3)C2)n1C (stereo unspecified) | inconclusive [inhibitor, single point] | –
63 | COc1ccc(NC(=O)c2cccc(N3C(=O)C4C5C=CC(C6CC56)C4C3=O)c2)c(OC)c1 (stereo unspecified) | inconclusive [inhibitor, single point] | –
64 | COc1ccc(COc2cc(-c3cccc(OC)c3)nc3ccc(NC(=O)c4ccc(OC)cc4)cc23)cc1 | active: 2.59 µM | –
65 | COc1c(OC(C)=O)ccc(/C=N\NC(=O)c2ccc(Br)cc2)c1[N+](=O)[O-] | inconclusive [inhibitor, partial curve] | –
66 | COc1ccc(CNC(=O)C(C)N2C(=O)COc3ccc(C)cc32)c(OC)c1 (stereo unspecified) | inactive | –
67 | COc1ccccc1N(CC(=O)NCCSc1ccccc1)S(=O)(=O)c1ccccc1 | inconclusive [inhibitor, single point] | –
68 | CCN(c1ccc(OC)cc1)S(=O)(=O)N1CCCC(C(=O)NCc2ccccc2Br)C1 (stereo unspecified) | inconclusive [inhibitor, single point] | –
69 | CSc1ccc(CN(C)C(=O)c2cc(=O)[nH]c3ccccc23)cc1 | inactive | –
70 | COc1ccc(S(=O)(=O)NCc2ccc(C(=O)NCCN(C)Cc3ccccc3)cc2)cc1 | active: 18.4 µM | –
71 | C/C(CCC(C)C)=N\NC(=S)Nc1cc(S(=O)(=O)N2CCOCC2)ccc1N1CCOCC1 | inconclusive [inhibitor, single point] | –
